# In the supplement of paper PMC8728848:
# Some of the results follow.
# Columns and labels:
# Test in all cases: glycan array binding signal (z-score within array); higher = stronger binding
# Conditions in all cases: glycan notation: IUPAC condensed, linker removed
# [1] = biological target: Gal(b1-4)GalNAc(b1-3)[Fuc(a1-2)]Gal(b1-4)GlcNAc
# How it was run: (§1)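 Glycan array data were curated from 3228 arrays in the Consortium for Functional Glycomics database and kept only where the protein sequence was available. Glycan names were converted to IUPAC-condensed notation, and columns mapping to the same glycan were averaged. The binding signal is a within-array Z-score, averaged across arrays of the same protein sequence at different concentrations or buffers and across linkers. Negative Z-scores can be read as non-binding.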
# [2] = biological target: Gal(b1-4)Glc
# How it was run: as §1
# [3] = biological target: Gal(b1-4)Glc6S
# How it was run: as §1
# [4] = biological target: Gal(b1-4)GlcNAc
# How it was run: as §1
# [5] = biological target: Gal(b1-4)GlcNAc(a1-6)Gal(b1-4)GlcNAc
# How it was run: as §1
# [6] = biological target: Gal(b1-4)GlcNAc(b1-2)Man
# How it was run: as §1
# [7] = biological target: Gal(b1-4)GlcNAc(b1-2)Man(a1-3)Man(b1-4)GlcNAc(b1-4)GlcNAc
# How it was run: as §1
# [8] = biological target: Gal(b1-4)GlcNAc(b1-2)Man(a1-3)[Gal(b1-4)GlcNAc(b1-2)Man(a1-6)]Man(b1-4)GlcNAc(b1-4)GlcNAc
# How it was run: as §1
# [9] = biological target: Gal(b1-4)GlcNAc(b1-2)Man(a1-3)[Gal(b1-4)GlcNAc(b1-2)Man(a1-6)]Man(b1-4)GlcNAc(b1-4)[Fuc(a1-6)]GlcNAc
# How it was run: as §1
# [10] = biological target: Gal(b1-4)GlcNAc(b1-2)Man(a1-3)[Gal(b1-4)GlcNAc(b1-2)Man(a1-6)][Gal(b1-4)GlcNAc(b1-4)]Man(b1-4)GlcNAc(b1-4)[Fuc(a1-6)]GlcNAc
# How it was run: as §1
# [11] = biological target: Gal(b1-4)GlcNAc(b1-2)Man(a1-3)[Gal(b1-4)GlcNAc(b1-2)Man(a1-6)][GlcNAc(b1-4)]Man(b1-4)GlcNAc(b1-4)[Fuc(a1-6)]GlcNAc
# How it was run: as §1
# [12] = biological target: Gal(b1-4)GlcNAc(b1-2)Man(a1-3)[GlcNAc(b1-2)Man(a1-6)]Man(b1-4)GlcNAc(b1-4)GlcNAc
# How it was run: as §1
# [13] = biological target: Gal(b1-4)GlcNAc(b1-2)Man(a1-3)[GlcNAc(b1-4)][Gal(b1-4)GlcNAc(b1-2)Man(a1-6)]Man(b1-4)GlcNAc(b1-4)GlcNAc
# How it was run: as §1
# [14] = biological target: Gal(b1-4)GlcNAc(b1-2)Man(a1-3)[Man(a1-6)]Man(b1-4)GlcNAc(b1-4)GlcNAc
# How it was run: as §1
# [15] = biological target: Gal(b1-4)GlcNAc(b1-2)Man(a1-6)Man(b1-4)GlcNAc(b1-4)GlcNAc
# How it was run: as §1
# [16] = biological target: Gal(b1-4)GlcNAc(b1-2)Man(a1-6)[GlcNAc(b1-2)Man(a1-3)]Man(b1-4)GlcNAc(b1-4)GlcNAc
# How it was run: as §1
# [17] = biological target: Gal(b1-4)GlcNAc(b1-2)Man(a1-6)[Man(a1-3)]Man(b1-4)GlcNAc(b1-4)GlcNAc
# How it was run: as §1
# [18] = biological target: Gal(b1-4)GlcNAc(b1-2)[Gal(b1-4)GlcNAc(b1-4)]Man(a1-3)[Gal(b1-4)GlcNAc(b1-2)Man(a1-6)]Man(b1-4)GlcNAc(b1-4)GlcNAc
# How it was run: as §1
# [19] = biological target: Gal(b1-4)GlcNAc(b1-2)[Gal(b1-4)GlcNAc(b1-4)]Man(a1-3)[Gal(b1-4)GlcNAc(b1-2)[Gal(b1-4)GlcNAc(b1-6)]Man(a1-6)]Man(b1-4)GlcNAc(b1-4)GlcNAc
# How it was run: as §1
# [20] = biological target: Gal(b1-4)GlcNAc(b1-2)[Gal(b1-4)GlcNAc(b1-4)]Man(a1-3)[GlcNAc(b1-4)][Gal(b1-4)GlcNAc(b1-2)Man(a1-6)]Man(b1-4)GlcNAc(b1-4)GlcNAc
# How it was run: as §1
# [21] = biological target: Gal(b1-4)GlcNAc(b1-2)[Gal(b1-4)GlcNAc(b1-4)]Man(a1-3)[GlcNAc(b1-4)][Gal(b1-4)GlcNAc(b1-2)[Gal(b1-4)GlcNAc(b1-6)]Man(a1-6)]Man(b1-4)GlcNAc(b1-4)GlcNAc
# How it was run: as §1
# [22] = biological target: Gal(b1-4)GlcNAc(b1-2)[Gal(b1-4)GlcNAc(b1-6)]Man(a1-6)[Gal(b1-4)GlcNAc(b1-2)Man(a1-3)]Man(b1-4)GlcNAc(b1-4)GlcNAc
# How it was run: as §1
# [23] = biological target: Gal(b1-4)GlcNAc(b1-2)[Gal(b1-4)GlcNAc(b1-6)]Man(a1-6)[Gal(b1-4)GlcNAc(b1-2)Man(a1-3)]Man(b1-4)GlcNAc(b1-4)[Fuc(a1-6)]GlcNAc
# How it was run: as §1
# [24] = biological target: Gal(b1-4)GlcNAc(b1-2)[Gal(b1-4)GlcNAc(b1-6)]Man(a1-6)[GlcNAc(b1-4)][Gal(b1-4)GlcNAc(b1-2)Man(a1-3)]Man(b1-4)GlcNAc(b1-4)GlcNAc
# How it was run: as §1
# [25] = biological target: Gal(b1-4)GlcNAc(b1-2)[Gal(b1-4)GlcNAc(b1-6)]Man(a1-6)[GlcNAc(b1-4)][Gal(b1-4)GlcNAc(b1-2)[Gal(b1-4)GlcNAc(b1-4)]Man(a1-3)]Man(b1-4)GlcNAc(b1-4)[Fuc(a1-6)]GlcNAc
# How it was run: as §1
# [26] = biological target: Gal(b1-4)GlcNAc(b1-3)Gal(b1-3)GalNAc
# How it was run: as §1
# [27] = biological target: Gal(b1-4)GlcNAc(b1-3)Gal(b1-3)GlcNAc
# How it was run: as §1
# [28] = biological target: Gal(b1-4)GlcNAc(b1-3)Gal(b1-4)Glc
# How it was run: as §1
# [29] = biological target: Gal(b1-4)GlcNAc(b1-3)Gal(b1-4)GlcNAc
# How it was run: as §1
# [30] = biological target: Gal(b1-4)GlcNAc(b1-3)Gal(b1-4)GlcNAc(b1-2)Man(a1-3)[Gal(b1-4)GlcNAc(b1-3)Gal(b1-4)GlcNAc(b1-2)Man(a1-6)]Man(b1-4)GlcNAc(b1-4)GlcNAc
# How it was run: as §1
binder,measurement,setting,value
Di AAL2 (Agrocybe aegerita) (protein) MTSNVITQDLPIPVASRGFADIVGFGLDGVVIGRNAVNLQPFLAVKNFAQNAGGWLTTKHVRLIADTTGTGKGDIVGFGNAGVYVSVNNGKNTFADPPKMVIANFGYDAGGWRVEKHLRYLADIRKIGRADIIGFGEKGVLVSRNNGGLNFGPATLVLKDFGYDAGGWRLDRHLRFLADVTGNGHLDIVGFGDKHVFISRNNGDGTFAPAKSVIDNFCIDAGGWKIGDHPRFVADLTGDGTADIIGCGKAGCWVALNNGGGVFGQVKLVINDFGTDKGWQAAKHPRFIADLTGNGRGDVVGFGNAGVYVALNNGDGTFQSAKLVLKDFGVQQGWTVSKHRRFVVDLTGDGCADIIGFGEKETLVSYNDGKGNFGPVKALTNDFSFSGGKWAPETTVCWMANLDSSRHPAPAPMTSNVITQDLPIPVASRGFADIVGFGLDGVVIGRNAVNLQPFLAVKNFAQNAGGWLTTKHVRLIADTTGTGKGDIVGFGNAGVYVSVNNGKNTFADPPKMVIANFGYDAGGWRVEKHLRYLADIRKIGRADIIGFGEKGVLVSRNNGGLNFGPATLVLKDFGYDAGGWRLDRHLRFLADVTGNGHLDIVGFGDKHVFISRNNGDGTFAPAKSVIDNFCIDAGGWKIGDHPRFVADLTGDGTADIIGCGKAGCWVALNNGGGVFGQVKLVINDFGTDKGWQAAKHPRFIADLTGNGRGDVVGFGNAGVYVALNNGDGTFQSAKLVLKDFGVQQGWTVSKHRRFVVDLTGDGCADIIGFGEKETLVSYNDGKGNFGPVKALTNDFSFSGGKWAPETTVCWMANLDSSRH,glycan array binding signal (z-score),[1],-0.339
same,glycan array binding signal (z-score),[2],-0.303
same,glycan array binding signal (z-score),[3],-0.327
same,glycan array binding signal (z-score),[4],-0.302
same,glycan array binding signal (z-score),[5],-0.334
same,glycan array binding signal (z-score),[6],-0.282
same,glycan array binding signal (z-score),[7],-0.316
same,glycan array binding signal (z-score),[8],-0.331
same,glycan array binding signal (z-score),[9],-0.343
same,glycan array binding signal (z-score),[10],-0.31
same,glycan array binding signal (z-score),[11],-0.34
same,glycan array binding signal (z-score),[12],-0.199
same,glycan array binding signal (z-score),[13],-0.333
same,glycan array binding signal (z-score),[14],-0.264
same,glycan array binding signal (z-score),[15],-0.322
same,glycan array binding signal (z-score),[16],-0.047
same,glycan array binding signal (z-score),[17],-0.31
same,glycan array binding signal (z-score),[18],-0.255
same,glycan array binding signal (z-score),[19],-0.346
same,glycan array binding signal (z-score),[20],-0.313
same,glycan array binding signal (z-score),[21],-0.327
same,glycan array binding signal (z-score),[22],-0.332
same,glycan array binding signal (z-score),[23],-0.304
same,glycan array binding signal (z-score),[24],-0.329
same,glycan array binding signal (z-score),[25],-0.338
same,glycan array binding signal (z-score),[26],-0.172
same,glycan array binding signal (z-score),[27],-0.309
same,glycan array binding signal (z-score),[28],0.009
same,glycan array binding signal (z-score),[29],-0.059
same,glycan array binding signal (z-score),[30],-0.254
